Measurements: the supplement of paper PMC12458215

System: HEK293T
Test: plasma membrane surface immunostaining intensity (anti-HA, deep receptor scanning) (arbitrary fluorescence units); higher = higher plasma membrane expression
Settings: GPCR class: A

Q: How did the “plasma membrane surface immunostaining intensity” value turn out when “MIVFLVFKHLFSLRLITMFFLLHFIVLINVKDFALTQGSMITPSCQKGYFPCGNLTKCLPRAFHCDGKDDCGNGADEENCGDTSGWATIFGTVHGNANSVALTQECFLKQYPQCCDCKETELECVNGDLKSVPMISNNVTLLSLKKNKIHSLPDKVFIKYTKLKKIFLQHNCIRHISRKAFFGLCNLQILYLNHNCITTLRPGIFKDLHQLTWLILDDNPITRISQRLFTGLNSLFFLSMVNNYLEALPKQMCAQMPQLNWVDLEGNRIKYLTNSTFLSCDSLTVLFLPRNQIGFVPEKTFSSLKNLGELDLSSNTITELSPHLFKDLKLLQKLNLSSNPLMYLHKNQFESLKQLQSLDLERIEIPNINTRMFQPMKNLSHIYFKNFRYCSYAPHVRICMPLTDGISSFEDLLANNILRIFVWVIAFITCFGNLFVIGMRSFIKAENTTHAMSIKILCCADCLMGVYLFFVGIFDIKYRGQYQKYALLWMESVQCRLMGFLAMLSTEVSVLLLTYLTLEKFLVIVFPFSNIRPGKRQTSVILICIWMAGFLIAVIPFWNKDYFGNFYGKNGVCFPLYYDQTEDIGSKGYSLGIFLGVNLLAFLIIVFSYITMFCSIQKTALQTTEVRNCFGREVAVANRFFFIVFSDAICWIPVFVVKILSLFRVEIPDTMTSWIVIFFLPVNSALNPILYTLTTNFFKDKLKQLLHKHQRKSIFKIKKKSLSTSIVWIEDSSSLKLGVLNKITLGDSIMKPVS [RXFP2]” was run?
A: 194 ± 8.5

Q: “MKHIINSYENINNTARNNSDCPRVVLPEEIFFTISIVGVLENLIVLLAVFKNKNLQAPMYFFICSLAISDMLGSLYKILENILIILRNMGYLKPRGSFETTADDIIDSLFVLSLLGSIFSLSVIAADRYITIFHALRYHSIVTMRRTVVVLTVIWTFCTGTGITMVIFSHHVPTVITFTSLFPLMLVFILCLYVHMFLLARSHTRKISTLPRANMKGAITLTILLGVFIFCWAPFVLHVLLMTFCPSNPYCACYMSLFQVNGMLIMCNAVIDPFIYAFRSPELRDAFKKMIFCSRYW [MC2R]” was tested. Which “plasma membrane surface immunostaining intensity” value did it give?
A: 683 ± 200

Q: Which “plasma membrane surface immunostaining intensity” value does the source give for “MKQRFSALQLLKLLLLLQPPLPRALREALCPEPCNCVPDGALRCPGPTAGLTRLSLAYLPVKVIPSQAFRGLNEVIKIEISQIDSLERIEANAFDNLLNLSEILIQNTKNLRYIEPGAFINLPRLKYLSICNTGIRKFPDVTKVFSSESNFILEICDNLHITTIPGNAFQGMNNESVTLKLYGNGFEEVQSHAFNGTTLTSLELKENVHLEKMHNGAFRGATGPKTLDISSTKLQALPSYGLESIQRLIATSSYSLKKLPSRETFVNLLEATLTYPSHCCAFRNLPTKEQNFSHSISENFSKQCESTVRKVNNKTLYSSMLAESELSGWDYEYGFCLPKTPRCAPEPDAFNPCEDIMGYDFLRVLIWLINILAIMGNMTVLFVLLTSRYKLTVPRFLMCNLSFADFCMGLYLLLIASVDSQTKGQYYNHAIDWQTGSGCSTAGFFTVFASELSVYTLTVITLERWHTITYAIHLDQKLRLRHAILIMLGGWLFSSLIAMLPLVGVSNYMKVSICFPMDVETTLSQVYILTILILNVVAFFIICACYIKIYFAVRNPELMATNKDTKIAKKMAILIFTDFTCMAPISFFAISAAFKVPLITVTNSKVLLVLFYPINSCANPFLYAIFTKTFQRDFFLLLSKFGCCKRRAELYRRKDFSAYTSNCKNGFTGSNKPSQSTLKLSTLHCQGTALLDKTRYTEC [LHCGR]” here?
A: 5790 ± 79

Q: How did the “plasma membrane surface immunostaining intensity” value turn out when “MLANSSSTNSSVLPCPDYRPTHRLHLVVYSLVLAAGLPLNALALWVFLRALRVHSVVSVYMCNLAASDLLFTLSLPVRLSYYALHHWPFPDLLCQTTGAIFQMNMYGSCIFLMLINVDRYAAIVHPLRLRHLRRPRVARLLCLGVWALILVFAVPAARVHRPSRCRYRDLEVRLCFESFSDELWKGRLLPLVLLAEALGFLLPLAAVVYSSGRVFWTLARPDATQSQRRRKTVRLLLANLVIFLLCFVPYNSTLAVYGLLRSKLVAASVPARDRVRGVLMVMVLLAGANCVLDPLVYYFSAEGFRNTLRGLGTPHRARTSATNGTRAALAQSERSAVTTDATRPDAASQGLLRPSDSHSLSSFTQCPQDSAL [LPAR5]” was run?
A: 1080 ± 34

Q: Which “plasma membrane surface immunostaining intensity” value does the source give for “MLPPGSNGTAYPGQFALYQQLAQGNAVGGSAGAPPLGPSQVVTACLLTLLIIWTLLGNVLVCAAIVRSRHLRANMTNVFIVSLAVSDLFVALLVMPWKAVAEVAGYWPFGAFCDVWVAFDIMCSTASILNLCVISVDRYWAISRPFRYKRKMTQRMALVMVGLAWTLSILISFIPVQLNWHRDQAASWGGLDLPNNLANWTPWEEDFWEPDVNAENCDSSLNRTYAISSSLISFYIPVAIMIVTYTRIYRIAQVQIRRISSLERAAEHAQSCRSSAACAPDTSLRASIKKETKVLKTLSVIMGVFVCCWLPFFILNCMVPFCSGHPEGPPAGFPCVSETTFDVFVWFGWANSSLNPVIYAFNADFQKVFAQLLGCSHFCSRTPVETVNISNELISYNQDIVFHKEIAAAYIHMMPNAVTPGNREVDNDEEEGPFDRMFQIYQTSPDGDPVAESVWELDCEGEISLDKITPFTPNGFH [DRD5]” here?
A: 480 ± 80

Q: For “MMDVNSSGRPDLYGHLRSFLLPEVGRGLPDLSPDGGADPVAGSWAPHLLSEVTASPAPTWDAPPDNASGCGEQINYGRVEKVVIGSILTLITLLTIAGNCLVVISVCFVKKLRQPSNYLIVSLALADLSVAVAVMPFVSVTDLIGGKWIFGHFFCNVFIAMDVMCCTASIMTLCVISIDRYLGITRPLTYPVRQNGKCMAKMILSVWLLSASITLPPLFGWAQNVNDDKVCLISQDFGYTIYSTAVAFYIPMSVMLFMYYQIYKAARKSAAKHKFPGFPRVEPDSVIALNGIVKLQKEVEECANLSRLLKHERKNISIFKREQKAATTLGIIVGAFTVCWLPFFLLSTARPFICGTSCSCIPLWVERTFLWLGYANSLINPFIYAFFNRDLRTTYRSLLQCQYRNINRKLSAAGMHEALKLAERPERPEFVLRACTRRVLLRPEKRPPVSVWVLQSPDHHNWLADKMLTTVEKKVMIHD [HTR7]”, which “plasma membrane surface immunostaining intensity” value is on record?
A: 586 ± 96

Q: “MMEPREAGQHVGAANGAQEDVAFNLIILSLTEGLGLGGLLGNGAVLWLLSSNVYRNPFAIYLLDVACADLIFLGCHMVAIVPDLLQGRLDFPGFVQTSLATLRFFCYIVGLSLLAAVSVEQCLAALFPAWYSCRRPRHLTTCVCALTWALCLLLHLLLSGACTQFFGEPSRHLCRTLWLVAAVLLALLCCTMCGASLMLLLRVERGPQRPPPRGFPGLILLTVLLFLFCGLPFGIYWLSRNLLWYIPHYFYHFSFLMAAVHCAAKPVVYFCLGSAQGRRLPLRLVLQRALGDEAELGAVRETSRRGLVDIAA [MRGPRE]” was tested. Which “plasma membrane surface immunostaining intensity” value did it give?
A: 1680 ± 420

Q: For “MMWGAGSPLAWLSAGSGNVNVSSVGPAEGPTGPAAPLPSPKAWDVVLCISGTLVSCENALVVAIIVGTPAFRAPMFLLVGSLAVADLLAGLGLVLHFAAVFCIGSAEMSLVLVGVLAMAFTASIGSLLAITVDRYLSLYNALTYYSETTVTRTYVMLALVWGGALGLGLLPVLAWNCLDGLTTCGVVYPLSKNHLVVLAIAFFMVFGIMLQLYAQICRIVCRHAQQIALQRHLLPASHYVATRKGIATLAVVLGAFAACWLPFTVYCLLGDAHSPPLYTYLTLLPATYNSMINPIIYAFRNQDVQKVLWAVCCCCSSSKIPFRSRSPSDV [GPR3]”, which “plasma membrane surface immunostaining intensity” value is on record?
A: 400 ± 63

Q: How did the “plasma membrane surface immunostaining intensity” value turn out when “MNASAASLNDSQVVVVAAEGAAAAATAAGGPDTGEWGPPAAAALGAGGGANGSLELSSQLSAGPPGLLLPAVNPWDVLLCVSGTVIAGENALVVALIASTPALRTPMFVLVGSLATADLLAGCGLILHFVFQYLVPSETVSLLTVGFLVASFAASVSSLLAITVDRYLSLYNALTYYSRRTLLGVHLLLAATWTVSLGLGLLPVLGWNCLAERAACSVVRPLARSHVALLSAAFFMVFGIMLHLYVRICQVVWRHAHQIALQQHCLAPPHLAATRKGVGTLAVVLGTFGASWLPFAIYCVVGSHEDPAVYTYATLLPATYNSMINPIIYAFRNQEIQRALWLLLCGCFQSKVPFRSRSPSEV [GPR6]” was run?
A: 433 ± 43

Q: “MNASCCLPSVQPTLPNGSEHLQAPFFSNQSSSAFCEQVFIKPEVFLSLGIVSLLENILVILAVVRNGNLHSPMYFFLCSLAVADMLVSVSNALETIMIAIVHSDYLTFEDQFIQHMDNIFDSMICISLVASICNLLAIAVDRYVTIFYALRYHSIMTVRKALTLIVAIWVCCGVCGVVFIVYSESKMVIVCLITMFFAMMLLMGTLYVHMFLFARLHVKRIAALPPADGVAPQQHSCMKGAVTITILLGVFIFCWAPFFLHLVLIITCPTNPYCICYTAHFNTYLVLIMCNSVIDPLIYAFRSLELRNTFREILCGCNGMNLG [MC3R]” was tested. Which “plasma membrane surface immunostaining intensity” value did it give?
A: 6358 ± 31

Q: “MNESRWTEWRILNMSSGIVNVSERHSCPLGFGHYSVVDVCIFETVVIVLLTFLIIAGNLTVIFVFHCAPLLHHYTTSYFIQTMAYADLFVGVSCLVPTLSLLHYSTGVHESLTCQVFGYIISVLKSVSMACLACISVDRYLAITKPLSYNQLVTPCRLRICIILIWIYSCLIFLPSFFGWGKPGYHGDIFEWCATSWLTSAYFTGFIVCLLYAPAAFVVCFTYFHIFKICRQHTKEINDRRARFPSHEVDSSRETGHSPDRRYAMVLFRITSVFYMLWLPYIIYFLLESSRVLDNPTLSFLTTWLAISNSFCNCVIYSLSNSVFRLGLRRLSETMCTSCMCVKDQEAQEPKPRKRANSCSI [GPR52]” was tested. Which “plasma membrane surface immunostaining intensity” value did it give?
A: 757 ± 170

Q: For “MNGTYNTCGSSDLTWPPAIKLGFYAYLGVLLVLGLLLNSLALWVFCCRMQQWTETRIYMTNLAVADLCLLCTLPFVLHSLRDTSDTPLCQLSQGIYLTNRYMSISLVTAIAVDRYVAVRHPLRARGLRSPRQAAAVCAVLWVLVIGSLVARWLLGIQEGGFCFRSTRHNFNSMAFPLLGFYLPLAVVVFCSLKVVTALAQRPPTDVGQAEATRKAARMVWANLLVFVVCFLPLHVGLTVRLAVGWNACALLETIRRALYITSKLSDANCCLDAICYYYMAKEFQEASALAVAPSAKAHKSQDSLCVTLA [GPR35]”, which “plasma membrane surface immunostaining intensity” value is on record?
A: 3990 ± 370

Q: Which “plasma membrane surface immunostaining intensity” value does the source give for “MNGVSEGTRGCSDRQPGVLTRDRSCSRKMNSSGCLSEEVGSLRPLTVVILSASIVVGVLGNGLVLWMTVFRMARTVSTVCFFHLALADFMLSLSLPIAMYYIVSRQWLLGEWACKLYITFVFLSYFASNCLLVFISVDRCISVLYPVWALNHRTVQRASWLAFGVWLLAAALCSAHLKFRTTRKWNGCTHCYLAFNSDNETAQIWIEGVVEGHIIGTIGHFLLGFLGPLAIIGTCAHLIRAKLLREGWVHANRPKRLLLVLVSAFFIFWSPFNVVLLVHLWRRVMLKEIYHPRMLLILQASFALGCVNSSLNPFLYVFVGRDFQEKFFQSLTSALARAFGEEEFLSSCPRGNAPRE [GPR32]” here?
A: 153 ± 42

Q: “MNITNCTTEASMAIRPKTITEKMLICMTLVVITTLTTLLNLAVIMAIGTTKKLHQPANYLICSLAVTDLLVAVLVMPLSIIYIVMDRWKLGYFLCEVWLSVDMTCCTCSILHLCVIALDRYWAITNAIEYARKRTAKRAALMILTVWTISIFISMPPLFWRSHRRLSPPPSQCTIQHDHVIYTIYSTLGAFYIPLTLILILYYRIYHAAKSLYQKRGSSRHLSNRSTDSQNSFASCKLTQTFCVSDFSTSDPTTEFEKFHASIRIPPFDNDLDHPGERQQISSTRERKAARILGLILGAFILSWLPFFIKELIVGLSIYTVSSEVADFLTWLGYVNSLINPLLYTSFNEDFKLAFKKLIRCREHT [HTR1E]” was tested. Which “plasma membrane surface immunostaining intensity” value did it give?
A: 6410 ± 86

Q: “MNQTLNSSGTVESALNYSRGSTVHTAYLVLSSLAMFTCLCGMAGNSMVIWLLGFRMHRNPFCIYILNLAAADLLFLFSMASTLSLETQPLVNTTDKVHELMKRLMYFAYTVGLSLLTAISTQRCLSVLFPIWFKCHRPRHLSAWVCGLLWTLCLLMNGLTSSFCSKFLKFNEDRCFRVDMVQAALIMGVLTPVMTLSSLTLFVWVRRSSQQWRRQPTRLFVVVLASVLVFLICSLPLSIYWFVLYWLSLPPEMQVLCFSLSRLSSSVSSSANPVIYFLVGSRRSHRLPTRSLGTVLQQALREEPELEGGETPTVGTNEMGA [MRGPRD]” was tested. Which “plasma membrane surface immunostaining intensity” value did it give?
A: 1610 ± 380

± gives the uncertainty stated by the source.
